The test system of series [1] is T1, mouse serpina3n secreted by Sertoli cells (in Sertoli cell-conditioned medium, SCCM).
T1 sequence: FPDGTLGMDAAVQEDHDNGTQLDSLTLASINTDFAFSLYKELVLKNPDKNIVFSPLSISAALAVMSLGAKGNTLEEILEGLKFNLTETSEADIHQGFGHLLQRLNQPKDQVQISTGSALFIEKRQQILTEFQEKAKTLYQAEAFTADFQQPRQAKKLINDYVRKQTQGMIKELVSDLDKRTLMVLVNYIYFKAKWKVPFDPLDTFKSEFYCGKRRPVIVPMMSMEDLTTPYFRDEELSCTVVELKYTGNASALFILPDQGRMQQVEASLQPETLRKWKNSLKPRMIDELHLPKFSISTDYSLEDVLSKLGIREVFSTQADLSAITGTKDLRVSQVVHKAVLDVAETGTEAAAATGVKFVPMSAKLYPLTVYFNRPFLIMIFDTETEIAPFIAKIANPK

Series [2] relates to T2, serpina3n-HA secreted by stably transfected Jurkat cells (clone SerE12-HA), in conditioned medium.
T2 sequence: T1 sequence

With “human granzyme B purified from the cytolytic granules of YT INDY cells (sequence left out)”, the “granzyme B activity (cleavage of IEPD-pNA, absorbance at 405 nm)” value in series [1] was “significant reduction (83% decrease) of granzyme B activity”. In addition, in series [2], the “granzyme B enzymatic activity (cleavage of IEPD-pNA) after pre-incubation with increasing volumes of conditioned medium” value is “SerE12-HA conditioned medium also inhibited granzyme B enzymatic activity in a dose-dependent manner”.

(Values after US20110083201.)
